{"source": "PubChem BioAssay (NCATS)", "note": "Records with an inconclusive call do not appear. The call rests on the fitted dose curve; tested in HEK293 reporter line. The source holds several records for some structures; these can differ, active in one and inactive in another. Certain results were filed several times, with different values. This list holds those alone. An entry can have further records. Values given together repeat one measurement across runs, samples, wells, individuals or studies. Records carry a tag for their origin. A, B and so on number the origins entry by entry. Potency means the concentration at half of the fitted maximal effect."}
{"assay": "qHTS for Inhibitors of the Functional Ribonucleoprotein Complex (vRNP) of Lymphocytic Choriomeningitis Arenaviruses (LCMV): Viability assay - alamar blue signal for LCMV Primary Screen (AID 1347085); further: nearly all actives have a fitted effect of over 80% in size", "conditions": "alamar blue viability counter-screen, LCMV vRNP screen cells; series mostly up to 57.5 µM"}
{"smiles": "COC(=O)[C@@H](N)CCCN=C(N)N[N+](=O)[O-]", "Potency": "active: 21.7 µM [sample A] and inactive [sample B]"}
{"smiles": "CC[C@@]1(O)C(=O)OCc2c1cc1n(c2=O)Cc2cc3ccccc3nc2-1", "Potency": "inactive [sample A] and active: 344 nM [sample B] and active: 316 nM [sample C]"}
{"smiles": "CC(C)c1ccc2c(c1)c(SC(C)(C)C)c(CC(C)(C)C(=O)O)n2Cc1ccc(Cl)cc1", "Potency": "inactive [sample A] and active: 24.3 µM [sample B]"}
